Reference: the RNAGym collection of RNA variant scans (doi:10.7554/elife.90254)
The source gives no read counts; variants with many changes may rest on few reads.

B1: OR4K15 (parent)
chain: GUUAACGGUCAUAGGCCAUGGAAACUAGGAGCACCAUUUCGCUGCCAGUGAAGAAAUGAACAAAGAAAAUCUGGGCCAGGCAGGCAUCAAAAGAAAUAGUCUUGCGCUCAACCAGAAAGUCUGUAAUCAUUUUAAGGGUA

Variants of: B1
Test: self-cleavage, relative activity (ratio to wild type); higher = more cleavage; in vitro, sequencing; the parent is a self-cleaving ribozyme

| Variant | self-cleavage |
| --- | --- |
| GUUAACGGUCAUAGGCCAUGGAAACUAGGAGCACCAUUUCGCUGCCAGUGAAGAUAUGAACAAAGAAAAUCUGGGCCAGGCAGGCAUCAAAAGAAAUAGUCUCGCGCUCCACCAGAAAGUCUGUAAUCAUUUUAAGGGUA [A55U U103C A110C] | 0.04 |
| GUUAACGGUCAUAGGCCAUGGAAACUAGGAGCACCAUUUCGCUGCCAGCGGAGAAAUGAACAAAGAAAGUCCGGGCCAGGCAGGCAUCAAAAGAAAUAGUCUCGCGCUCAACCAGAAAGUCUGUAAUCAUUCUAAGGGUA [U49C A51G A69G U72C U103C U132C] | 0.06 |
| GUUAACGGUCAUAGGCCAUGGAAACUAGGAGCACCAUUUCGCUGCCAGUGAGGAAAUGAACAAAGAAAAUCUGGGCCAGGCAGGCAUCAAAAGAGAUAGUCUUGCGCUCAACCAGAAAGUCUGUAAUCAUUUUAAGGGCA [A52G A95G U139C] | 2.47 |
| GUUAACGGUCAUAGGCCAUGGUAACUAGGAGCACCAUUUCGCUGCCAGUGAAGAAACGAACAAAGAAAAUCUGGGCCAGGCAGGCAUCAAAAGAAAUAGUCUUGCGCCCAACCAGAAAGUCUGUAAUCAUUUUAAGGGUA [A22U U57C U108C] | 0.02 |
| GUUAACGGUCAUAGGCCAUGGAAACUAGGAGCACCAUUUCGCUGCCAGUGAAGGAGUGGACAGAGAAAAUCUGGGCCAGGCAGGCAUCAAAAGAAAUAGUCUUGCGCUCAACCAGAAAGUCUGUAAUCAUUUUAAGGGUA [A54G A56G A59G A63G] | 1.71 |
| GUUAACGGUCAUAGGCCAUGGAAUCUAGGAGCACCCAUUCGCUGCCAGUGAAGAAAUGAACAAAGAAAAUCUGGGCCAGGCAGGCAUCAAAAGAAACAGUCUAGCGCUCAACCAGAAGGUCUGUAAUCAUUUUAAGGGUA [A24U A36C U37A U97C U103A A118G] | 0.37 |
| GUUAACGGUCAUAGGCCAUGGAAACUAGGUGCACCAUUUCGCUGCCAGUGAAGAAAUGAACUAAGAAAAUCUGGGCCAGGCAGGCAUCAAAAGAAUUAGUCUUGCGCUCAACCAGAGAGUCUGUAAUCAUUUUAAGGGUA [A30U A62U A96U A117G] | 1.41 |
| GUUAACGGUCAUAGGCCAUGGAAACUAGGAGCACCCUUUCGCUGCCAGUGAAGAAAUGAACAAAGAAAAUCUGGGCCAGGCAGGCAUCAAAAGAAAUAGUCUUACGCUCAACCAGAAAGUCUGUAGUCAUUUUAAGGGUA [A36C G104A A126G] | 0 |
| GUUAACGGUCAUAGGCCAUGGAUACUAGGAGCACCGUUUCGCUGCCAGCGAAGAAGUGAACAAAGAAAAUCUAGGCCUGGCAGGCAUCAAAAGAAAUAGUCUUGCGCUCAACCAGAAGGUCUGUAAUCAUUUUAAGGGUA [A23U A36G U49C A56G G73A A78U A118G] | 0.1 |
| GUUAACGGUCAUAGGCCGUGGAAACUAGGAGCACCAUUUCGCUGCCAGUGGAGAAAUGAACAAAGAAAAUCUGGGCCAGGCAGGCAUCAAAAGAAAUAGUCUUGCGCUCAACCAGAAAGUCCGUAAUCAUUUUAAGGGUA [A18G A51G U122C] | 0.64 |
| GUUAACGGUCAUAGGCCAUGGAAACUAGGAGCACCAUUCCGCUGCCAGUGAAGAAAUGAACAAAGAAAAUCUGGGCCAGGCAGGCAUCAAAGGAAGUAGUCUUGCGCUCAACCAGAAAGUCUGUAAUCAUGUUAAGGGUA [U39C A92G A96G U131G] | 1.53 |
| GCUAACGGUCAUAGGCCAUGGAAACUAGGUGCACCAUUUCGCUGCCAGUGAAGAAAUGAACUAAGAAAAUCUGGGCCAGGCAGGUAUCAAAAGAAAUAGUCUUGCGCUCAACCAGAGAGUCUGUAAUCAUUUUAAGGGUA [U2C A30U A62U C85U A117G] | 1.42 |
| GUUAACGGUCAUAGGCCGAGGAAACUAGGAGCACCAUUUCGCCGCCAGUGAAGAAAUGAACAAAGAAAAUCUGGGCCAGGCAGGCAUCAAAAGAAAUAGUCUUGCGCUCAACCAGAAAGUUUGUAAUCAUUUUAAGGGUA [A18G U19A U43C C121U] | 1.5 |
| GUUAACGGUCAUGGGCCAUGGAAACUAGGAGCACCAUUUCGCUGCCAGUGAAGAAAUGAACAAAGAAAAUCUGGGCCAGGCAGGCAUCAAAAGAGAUAGUCUUGCGCUCAACCAGAAAGUCUGUAAUCGUUUUAAGGGUA [A13G A95G A129G] | 1.61 |
| GUUAACGGUCGUAGGCCAUGGAAACUAGGAGCACCAUUUCGCCGCCAGUGAAGAAAUGAACAAAGAAAAUCUGGGCCAGGCAGGCGUCAGAAGAAAUAGUCUUGCGCUCAACCAGAAAGUCUGUAAUCAUUUUAAGGGUA [A11G U43C A86G A90G] | 0.92 |
| GUUAACGGUCAUAGGCCAUGGAAACUAGGAGCACCAUUUCGCUGCCAGUGAAGAAAAGAACAAAGAAAAUCUGGGCCAGGCAGGCAUCAAAAGAAAUAGUCUUGCGCCCAACCAGAAAGCCUGUAAUCAUUUUAAGGGUA [U57A U108C U120C] | 0 |
| GUUAAUGGUCAUAGGCCAUGGAAACUAGGAGCACCAUUUCGCUGCCAGUGAAGAAAUGAACAAAGAGAAUCUGGGCCAGGCAGGCAUCAAAUGAAAUAGUCUUGCGCUCAACCAGAGAGUCCGUAAUCAUUUUAAGGGUA [C6U A67G A92U A117G U122C] | 1.25 |
| GUUAACGGUCAUAGGCCAUGGAAACUAGGAGCACCAUUUCGCUGCCAGUGGAGAAAUGAGCAAAGAAAAUCUGGGCCAGGCAGGCAUCAAAAGAAAUUGUCUUGCGCUCAACCAGAAAGUCUGUAAUCAUUUUAAGGGUA [A51G A60G A98U] | 1.71 |
| GUUAACGGUCAUAGGCCAUGGAAACUAGGAGCACCUUUUCGCUGCCAGUGGAGAAAUGAACAAAGAAAAUCUGGGCCAGGCAGGCAUCAACAGAAAUAGUCUUGCGCUCAACCAGAAAGUCUGUAAUCAUUUUAAGGGUA [A36U A51G A91C] | 1.96 |
| GUUAACGGCCAUAGGCCAUGGAGACUAGGAGCACCAUUUCGCUGCCAGUGGAGAGAUGAACAAAGAAAAUCUGGGCCAGGCAGGCAUCAAAAGAAAUAGCCUUGCGCUCAACAAGAAAGUCUGUAAUCAUUUUAAGGGUA [U9C A23G A51G A55G U100C C113A] | 0.02 |
| GUUAACGGUCAUAGGCCAUGGAGACUAGGAGCACCAUUUCGCUGCCAGUGAAGAAAUGAACAGAGAAAAUCUGGGCCAGGCAGGCAUCAAAAGAAAAAGUCUUGCGCUCAUCCAGAAAGUCUGUAAUCAUUUUAAGGGUA [A23G A63G U97A A111U] | 0.21 |

| Variant | self-cleavage |
| --- | --- |
| GUUAACGGUCAUAGGCCAUGGAAACUAGGAGCACCAUUUCGCUGCCAGUGAAGAAAUGUACAAAGAAAAUCUGGGCCAGGCAGACAUCAAAAGAAAUAGUCUUGCGCUCAACCAGAAGGUCUGUAAUCAUUUUAAGGGUA [A59U G84A A118G] | 1.1 |
| GUUAACGGUCAUAGGCCAUGGAAACUAGGAGCACCAUUUCGUUGCCAGUGAAGAAAUGAACAAAGAAAAUCUGGGCCAGGCAGGCAUCAAAAGAAAUAGUCUUGCGCUCUACCAGAGAGUCUGUAAUCAUUUUAAGGGUA [C42U A110U A117G] | 1.91 |
| GUUAACGGUCAUAGGCCAUGGAAACUAGGAGCACCAUUUCGCUGCCAGUGGAGAAAUGAACGAAGAAAAUCUGGGCCAGGCAGGCAUCAAAAGAAAUAGUCUUGCGCUCAACCAGAGAGUCUGUAAUCAUUUUAAGGGUA [A51G A62G A117G] | 1.61 |
| GUUAACGGUCAUAGGCCAUGGAAACUAGGAGCACCAUUUCGCUGCCAGUGAAGAAAUGAACAAAGAAAAUCUGGGCCAGGCAGGCAGCAGAAGGAAUAGUCUUGCGCUCAACCAGAAAGUCUGUAAUCAUUUUAAGGGUA [U87G A90G A94G] | 0.51 |
| GUUAACGGUCAUAGGCCAUGGAAACUAGGAGCACCAUUUCGCUGCCAGUGAAGAAAUGAACAAAGAGAAUCUGGGCCAGGCAGGCAUCAAAAGAAAUAGUCUUGCGGUCAACCAGAAAGUCUGUAAUCAUCUUAAGGGUA [A67G C107G U131C] | 0.03 |
| GUUAACGGUCAUAGGCCACGGAAACUAGGAGCACCAUUUCGCUGCCUGUGAAGAAAUGAACAAAGAAAAUCUGGGCCAGGCAGGCAUCAAAAGAAAUAGUCUUGCGCUCAACCAGAGAGUCUGUAAUCAUUUUAGGGUUA [U19C A47U A117G A135G G138U] | 0.37 |
| GCUAACGGUCAUAGGCCAUGGAAACUAGGAGCACCAUUUCGCUGCCAGUGAAGAAAUGAACAAAGAAAAUCUGGGCCAGGCAGGCAUCAAAAGAUGUAGUCUUGCGCUCAACCAGAAAGUCUGUAAUCAUUUUAAGGGUA [U2C A95U A96G] | 0.64 |
| GUUAACGGUCAUAGGCCAUGGAAACUAGGAGCACCAUUUCGCUGCCAGUGAAGAAAUGAACAAAGAAAGUCUGGGCCAGGCAGGCAUCAAAAGAACUAGUCUCGCGCUCAACCAGAAAGUCUGUAAUCAUUUUAAGGGUA [A69G A96C U103C] | 0.11 |
| GUUAGCGGUCAUAGGCCAUGGAAACUAGGAGCACCAUUCCGCUGCCAGUAAAGAAAUGAACAAAGAAAAUCUGGGCCAGGCAGGCAUCAAAAGAAAUAGUCUUGCGCUCAACCAGAAAGUCUGUAAUCAUUUUAAGGGUA [A5G U39C G50A] | 0.99 |
| GUUAACGGUCAUAGGCCAUGGAAGCUAGGAGCACCAUUCCGCUGCCAGUGAAGAACUGAACAAAGAGAAUCUGGGCCAGGCAGGCAUCAAAAGAAAUAGUCUUGCGCUCAACCAGAAAGUCUGUAAUCAUUUUAAGGGUA [A24G U39C A56C A67G] | 1.16 |
| GUUAACGGUCAUAGGCCUUGGAAACUAGGAGCACCAUUUCGCUGCCAGUGAAGAAAUGAACAAAGAAAAUCUGGGCCAGGCAGGCAUCAAAAGAAAUAGUCUUGCGCUCAACCAGUAUGUCUGUAAUCAUUUUAAGGGUA [A18U A116U A118U] | 0.1 |
| GUUAACGGUCAUAGGCCAUGGACACUAGGAGCACCAUUUCGCAGCCAGUGAAGAAAUGAACAAAGAAGAUCUGGGCCAGGCAGGCAUCAAAAGAAAUAGUCUUGCGCUCAACCAGAAAGUCUGUAAUCAUUUUAAGGGUA [A23C U43A A68G] | 1.33 |
| GUUAACGGUCAUAGGCCAUGGAAACUAGGAGCACCAUUUCGCUGCCGGUGAAGAAAUGAACAAAGAAAAUCUGGGCCAGGCAGGCGUCAAAAGAAAUAGUCUUGCGCUCAACCAGAAAGUCUGUAAUCAUUAUAAGGGUA [A47G A86G U132A] | 0.48 |
| GUUAACGGUCAUAGGCCAUGGAAACUAGGAGCACCAUUUCGCUGCCAGUGAAGAAAUGAACAAAGAAAAUCUGGGCCAGGCAGGCAUCAAAAGAAAUAGUCUUGCGGUCAACCAGGAAGUCUGUAAUCAUCUUAAGGAUA [C107G A116G U131C G138A] | 0 |
| GUUAACGGUCAUAGGCCUUGGAAACUAGGAGCACCAUUUCGCUGCCAGUGAAGAAAUGAACAAAGAAAAUCUGGGCCAGGCAGGCAUCAAAAGAAGUAGUCUUGCGCUCAGCCUGAAAGUCUGUAAUCAUUUUAAGGGUA [A18U A96G A111G A114U] | 0.02 |
| GUUAACGGUCAUAGGCCAUGGAAACUAGGAGCACCAUUUCGCUGCCAGUGAAGAAAUGAACAAAGAAAAUCUGGGCCAGGCGGGGAUCAAAGGAAAUAGUCUUGCGCUCAACCAGAAAGUCUGUAAUCAUUUUAAGGGUA [A82G C85G A92G] | 0.13 |
| GUUAACGGUCAUAGGACAUGGAAACUAGGAGCACCAUUUCGCUGCCAGUGAAGAAAUGAACAAAGAAAAUCUGGGCCAGGCGGGCAUCAAAAGAAAUAGUCUUGCGCUCAACCAGAAAGUCCGUAAUCAUUUUAAGGGUA [C16A A82G U122C] | 0.39 |
| GUUAACGGUCAUAGGCCGUGGGAACUAGGAGCACCAUCUCGCUGCCAGUGAAGAAAUGAACAAAGAGAAUCUGGGCCAGGCAGGCAUCAGAAGAAAUAGUCUUGCGCUCAACCAGGAAGUCUGUAAUCAUUUUAAGGGUA [A18G A22G U38C A67G A90G A116G] | 0.14 |
| GUUAACGGUCAUAGGCCAUGGAAACUAGGAGCACCAUUUCGCUGCCAGUGAAGAAAUGAACAAAGAAAAUCUGGGCCAGGCAGGCAUCAAAAGGAAUGGUCAUGCGCUCAACCAGAAAGUCUGUAGUCAUUUUAAGGGUA [A94G A98G U102A A126G] | 0.09 |
| GUUAACGGUCAUAGGCCAUGGAAACUAGGAGCACCAUUCCGCUGCCAGUGAAGAAAUGAACAAAGAUAAUCUGGGCCAGGCAGGCAUCAAAAGAAAUAGUCUUGCGCUCAGCCAGAAAGUCUGUAAUCAUUUUAAGGGUA [U39C A67U A111G] | 0.01 |
